Source: PubChem BioAssay AID1645887 (National Center for Advancing Translational Sciences (NCATS), 2021)
“And” between values parts separate entries of the source, which are not always exact repeats. Equal values may be shown once. Out of some 16,000 compounds screened, about 40 (0.2%) were called active. About 1% were inconclusive and are not listed. Calls follow the shape of the dose curve; as a rule, active = well fitted activation curve with a large enough effect; inconclusive = small, poorly fitted or top-dose-only effect, or another doubt; inactive = no such curve, though single readings can be large or run the other way. This is one part of the list.

These compounds were tested against Rap guanine nucleotide exchange factor 4 (Homo sapiens) (UniProt Q8WZA2) (assay: Validation qHTS for agonist of cAMP-regulated guanine nucleotide exchange factor 4 (EPAC2)). Settings: EPAC2 Rap1B BODIPY-GDP exchange, fluorescence; activation: active compounds read high.
UniProt Q8WZA2, sequence (Q8WZA2 whole entry, looked up): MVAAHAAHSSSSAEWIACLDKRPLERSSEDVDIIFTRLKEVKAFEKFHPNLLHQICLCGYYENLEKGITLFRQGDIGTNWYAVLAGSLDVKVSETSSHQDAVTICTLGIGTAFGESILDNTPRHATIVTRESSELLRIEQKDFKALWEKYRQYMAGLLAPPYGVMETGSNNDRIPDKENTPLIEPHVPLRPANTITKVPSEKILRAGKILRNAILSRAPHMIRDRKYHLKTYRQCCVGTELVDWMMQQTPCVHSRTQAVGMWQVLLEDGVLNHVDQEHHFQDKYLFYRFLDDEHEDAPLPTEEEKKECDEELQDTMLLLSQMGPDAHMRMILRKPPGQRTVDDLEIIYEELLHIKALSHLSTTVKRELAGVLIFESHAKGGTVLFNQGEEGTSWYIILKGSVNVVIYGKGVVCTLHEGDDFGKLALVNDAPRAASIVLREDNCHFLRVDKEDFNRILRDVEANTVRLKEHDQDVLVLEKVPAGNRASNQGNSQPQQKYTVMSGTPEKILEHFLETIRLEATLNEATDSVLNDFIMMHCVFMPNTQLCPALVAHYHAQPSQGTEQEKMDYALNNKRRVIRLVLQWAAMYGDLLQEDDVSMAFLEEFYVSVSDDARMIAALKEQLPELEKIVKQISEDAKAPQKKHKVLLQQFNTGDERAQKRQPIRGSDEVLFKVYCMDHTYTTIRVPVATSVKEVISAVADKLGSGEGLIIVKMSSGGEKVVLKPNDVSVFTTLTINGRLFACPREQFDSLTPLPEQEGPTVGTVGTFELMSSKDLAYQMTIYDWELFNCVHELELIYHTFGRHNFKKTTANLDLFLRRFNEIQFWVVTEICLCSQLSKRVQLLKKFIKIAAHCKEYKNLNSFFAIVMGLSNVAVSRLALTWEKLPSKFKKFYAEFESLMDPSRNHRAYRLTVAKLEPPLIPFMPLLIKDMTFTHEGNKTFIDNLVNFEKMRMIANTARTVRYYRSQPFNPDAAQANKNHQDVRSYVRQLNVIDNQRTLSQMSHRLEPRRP
In short: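 Fluorescent exchange assay: 100 nM EPAC2 with 250 nM RAP1B-BODIPY-GDP and 50 uM GDP; compound added, 5 min at room temperature, then read (ex 480/em 540 nm) every 5 min for 30 min. Normalized to 6.5 mM cAMP agonist control.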
% is scaled to controls: 0 for no effect and ±100 for the full control effect.
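Also: exchange makes BODIPY-GDP fluorescence drop when released from Rap1B; series mostly up to about 150 µM.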

activation, inactive:
CCN1CCCC(OC(=O)C(c2ccccc2)c2ccccc2)C1 (stereo unspecified) -14.9% and -1.19%, [N-]=[N+]=NC[C@H](Cc1ccccc1)N1CC[C@@H](O)CCC1=O -8.03%, COc1ccc(C(=O)N2CCC3(CC2)CN(C(=O)NC(C)C)C3)cc1 5.41%, COCCn1c(=O)c(C)nc2cnc(N3CCOCC3)nc21 -1.44%, Cc1onc(-c2c(F)cccc2Cl)c1C(=O)N[C@@H]1C(=O)N2[C@@H]1SC(C)(C)[C@@H]2C(=O)O 10.1% and -1.37%, COc1ccccc1C1OC(=O)CC1C(=O)OC[C@@H]1CCCN2CCCCC12 (stereo partly specified) 16.1%, COc1ncc2nc(CCc3ccccc3)c(=O)n(CCc3ccccc3)c2n1 -18.7%, CCCCOC(=O)C(=O)Nc1cccc(-c2nn[nH]n2)c1 0.687%, O=C(Nc1ccc(Cl)c(C(F)(F)F)c1)[C@@H]1CC=C[C@@H]2CCN(C3CC3)C(=O)[C@@H]21 -10.7%, CC1CC[C@@]2(OC1)OC1CC3C4CC=C5CC(O)CC[C@@]5(C)C4CC[C@]3(C)C1C2C (stereo partly specified) -17.8%, CN(C)CCCSC(=N)N -12.4% and 1.4%, COc1ccc(-c2cc(=O)c3c(O)cc(O[C@@H]4OC(COC5OC(C)C(O)C(O)[C@@H]5O)C(O)C(O)C4O)cc3o2)cc1 (stereo partly specified) -16.9%, Cn1cnnc1Sc1ccc(CN2CCOc3ccc(C4=CCCCC4)cc3C2)o1 -22.7%, COc1ccc(-n2c(=O)c(-c3cccc(C#N)c3)nc3cnc(N4CCNCC4)nc32)cc1 -8.05%, CNc1ncnc2ccc(-c3ccccc3CN(C)C)cc12 -4.25%, COc1ccc(-c2coc3cc(O)ccc3c2=O)c(OC)c1O -15%, NCCNCCNCCN -14.7%, COc1ccccc1CNc1nc(-c2ccccc2CN(C)C)nc2ccccc12 -16.9%, Cc1c(C(=O)O)c(O)cc2c1C(=O)c1c(O)c([C@H]3O[C@H](CO)[C@@H](O)[C@H](O)[C@H]3O)c(O)c(O)c1C2=O -8.9%, Cc1csc(C(C)N(C)C(=O)c2cc(NC(=O)C3CCC3)c3c(c2)nc(-c2ccncc2)n3C)n1 (stereo unspecified) 2.87%, COc1ccc(/C=C/C(=O)NCC2Cc3cccc(-c4nc(C)cnc4C)c3O2)cc1OC (stereo unspecified) -2.67%, Fc1ccc(N2CCN(Cc3ccc4c(c3)CN(Cc3cccn3-c3ncccn3)CCO4)CC2)cc1 1.79%, O=C(NCCN1CCOCC1)c1ccc(Cl)cc1 -11.9% and 10.6% and -3.93%, N#Cc1ccc(CN2CC3(CCN(C(=O)c4cc(C(F)(F)F)cc(C(F)(F)F)c4)CC3)C2)cc1 -16%, O=C(c1ccncc1)N1CCC2(CC1)CN(c1ccc(-c3ccccc3)cc1)C2 8.99%, COCCn1c(=O)c(-c2ccccc2)nc2cnc(N3CCOCC3)nc21 -8.21%, Cc1ccc(/C(=C/CN2CCCC2)c2ccccn2)cc1 -14.7%, CC(C)(C)c1ccc(C(=O)C[n+]2ccc(Cl)c3ccc(Cl)cc32)cc1 -17.3%, C[C@]12CC[C@@H](O)C[C@@H]1CC[C@@H]1[C@@H]2CC[C@]2(C)C=CC[C@@H]12 2.4%, O=C(c1cccc(F)c1)N1CCC[C@@]2(CCN(Cc3nccs3)C2)C1 -13.2%, C[C@H]1[C@H](C)CC[C@]2(C(=O)O)CC[C@]3(C)C(=CCC4[C@@]5(C)CC[C@H](O)C(C)(C)[C@@H]5CC[C@]43C)[C@H]12 (stereo partly specified) -27%, O=C(c1csnn1)N1CCC[C@@]2(CCN(c3ccncc3)C2)C1 -5.02%, O=C(c1cccc(F)c1)N1CCC2(CC1)CN(c1cccc(-c3ccccc3)c1)C2 8.32%, COCc1nc2c([nH]1)c(=O)n(C)c(=O)n2CC(C)C -1.16% and 8.77% and -24.5%, O=C(NCc1ccccn1)c1cnn(-c2nccc(-c3cc4ccccc4o3)n2)c1C1CC1 -1.39%, COc1ccc(C[C@H](N)C(=O)N[C@H]2[C@@H](O)[C@H](n3cnc4c(N(C)C)ncnc43)O[C@@H]2CO)cc1 -9.76%, [O-][n+]1cccc(CO)c1 -13.3%, COc1ccc(CCNC(=O)C(=O)c2c[nH]c3ccccc23)cc1 -15.3%, COC(=O)c1cc(-c2c(-c3ccc4c(c3)OCO4)noc2-c2ccsc2)cc([N+](=O)[O-])c1 -15.2%, Cc1nc(CC(=O)NCC2Cc3cc(F)cc(-c4ccc(F)c(C)c4)c3O2)cs1 (stereo unspecified) 1.17%, COC(=O)C1N2C(=O)[C@@H](NC(=O)COc3ccccc3)[C@H]2SC1(C)C (stereo partly specified) -3.21%, Fc1ccc([C@H]2CCNC[C@H]2COc2ccc3c(c2)OCO3)cc1 -0.245%, O=c1c(O)c(-c2ccccc2)oc2cccc(O)c12 -10.2%, Cc1cc(C(=O)O[C@H]2[C@H](C)NS(=O)(=O)[C@H]3C[C@@H]4C=C[C@]23O4)cc([N+](=O)[O-])c1 -21.3%, C(=C1C=c2ccccc2=C1)c1ccc(N=Nc2ccc(C=C3C=c4ccccc4=C3)cc2)cc1 -10.3%, O=C(c1cc(C(F)(F)F)cc(C(F)(F)F)c1)N1CCC2(CCCN(Cc3nccs3)C2)CC1 -30.5%, COc1ccc(C(=O)N2CCC3(CC2)CN(c2ccccc2)C3)cc1 6.65%, COc1ccc(C2(C(=O)NCC3Cc4cccc(-c5nc(C)cnc5C)c4O3)CCCC2)cc1 (stereo unspecified) -10.7%, CN[C@H]1CCc2cc(OC)c(OC)c(OC)c2-c2ccc(OC)c(=O)cc21 -2.49%, N#Cc1ccc(CN2CCCC3(CCN(C(=O)c4csnn4)CC3)C2)cc1 -2.24%, Cc1ccnc(NS(=O)(=O)c2ccc(N)cc2)n1 -11.6% and 0.242%, O=C(Nc1ccc(Cl)cc1Cl)[C@@H]1CC=C[C@@H]2CCN(Cc3ccccc3)C(=O)[C@@H]21 -16.4%, NC(=O)OCC(COC(N)=O)c1ccccc1 1.35% and -10.3% and -26.4%, Cc1nc2cnc(Nc3ccccc3)nc2n(Cc2cccs2)c1=O -10.8%, COc1ccccc1-c1cc(NCc2cnc(C)cn2)ncn1 -13%, c1cc2c3c(c1)CCC[N+]3(C1CCCCC1)CCC2 -4.12%, COC(=O)N[C@H](C(=O)N[C@@H](Cc1ccccc1)[C@@H](O)CN(Cc1ccc(-c2ccccn2)cc1)NC(=O)[C@@H](NC(=O)OC)C(C)(C)C)C(C)(C)C -6.82%, CC1(C)CC[C@]2(C)CC[C@@]3(C)C(=CCC4[C@@]5(C)CCC(O)C(C)(C)C5CC[C@@]43C)C2C1 (stereo partly specified) -13.2%, O=c1[nH]c(=O)n([C@H]2C[C@@H](O)[C@@H](CO)O2)cc1C=CBr -22.7%, NCCCC(O)(P(=O)(O)O)P(=O)(O)O -11.3% and -14.6%, O=C(Nc1ccccc1)N1CCCC2(CCN(C(=O)c3csnn3)CC2)C1 -8.21%, O=C(c1ccncc1)N1CCC[C@@]2(CCN(c3ccncc3)C2)C1 -12%, Nc1ccc(S(=O)(=O)Nc2cnc3ccccc3n2)cc1 -6.81% and -17.8%, Cc1ccccc1CN1CCc2nnc(C(C)NC(=O)C3CCN(C)CC3)n2CC1 (stereo unspecified) -4.64%, COCC(=O)N1CCC2(CCCN(c3ccccn3)C2)CC1 3.89%, COc1cc(CN2CCC3(CC2)CC3C(=O)Nc2ccc3sc(C)nc3c2)ccc1F (stereo unspecified) -6.82%, OC[C@H]1O[C@@H](n2cnc3c(NCc4ccccc4)ncnc32)[C@H](O)[C@@H]1O 2.58%, Oc1ccc(CCNCCCCCCNCCc2ccccc2)cc1O -0.655%, CC1=CC(=C(c2ccc(N)cc2)c2ccc(N)cc2)C=CC1=N 11%, COc1ccc(SCCN2CC[C@@H](C(C)(C)C)CCC2=O)cc1 -27%, C=CCN(c1ccc(Br)cc1C(=O)OC)S(C)(=O)=O -22.7%, COc1ccc(CN2CCC(=O)N([C@H](CO)Cc3ccccc3)CC2)cc1OC -15.2%, CC(C)c1c(C(=O)NCC(C)(C)N2CCOCC2)cnn1-c1nccc(-c2ccccc2F)n1 -6.27%, CCCCCCCCCC[Si](C)(C)CCC(=O)NC(Cc1ccc(C)cc1)c1ccccc1 (stereo unspecified) -23.7%, Cc1cccc(CNc2ncncc2-c2ccccc2C(F)(F)F)c1 -11.4%, CN(Cc1ccco1)c1ncnc2ccc(-c3ccc4c(c3)OCO4)cc12 -18.6%, CN1CCC(Nc2ncc3ncnc(Nc4ccc(F)c(Cl)c4)c3n2)CC1 -26.5%, O=C1C(c2[nH]c3ccccc3c2O)=Nc2ccccc21 -4.29%, O=c1c(O)c(-c2ccc(O)cc2)oc2ccccc12 -23.6%, Clc1ccccc1-c1ccc2ncnc(N3CCNCC3)c2c1 -10.4%, Cc1noc(C)c1C(=O)N1CCC2(CCCN(Cc3ccc(C#N)cc3)C2)CC1 -0.829%
